# In all, about 48,000 compounds went through this assay and about 450 (0.94%) were called active. Roughly 19% stayed inconclusive and do not appear here. The call rests on the fitted dose curve; in most records, active means well fitted inhibition curve with a large enough effect; inconclusive means small, poorly fitted or top-dose-only effect; inactive means no such curve, though single readings can be large or run the other way. The list shows a part of the results.
# Assay: Primary qHTS for Identification of Small Molecule Inhibitors of Huntingtin Promoter Activity; further: nearly all actives have a fitted effect of over 50% in size
# Details: HEK293 HTT promoter firefly luciferase reporter (activity 0% = vehicle and -100% = no light), 24 h; activity change, negative = inhibition: at the top concentration
# Method in brief: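 HEK293 Fluc reporter, 2,500 cells/well, 24 h pre-culture; cpds up to 57.5 uM final, 24 h 37 degrees C; Dual-Glo, 10 min RT; normalized vehicle = 0%, zero RLU = -100%.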
row,SMILES,"activity change, negative = inhibition"
1,CC(C)(C)NC[C@H](O)c1ccc(O)cc1Cl,inactive: -2.07%
2,COC(C)(C)CCCC(C)C/C=C/C(C)=C/C(=O)OC(C)C (stereo not drawn),inactive: -0.504%
3,CC(C)(C)c1ccc(OCC(=O)Nc2ccc(Cl)cc2C(=O)c2ccccc2)cc1,inactive: -4.82%
4,CCOc1ccccc1CN(CCc1ccc2c(c1)OCO2)Cc1ccc(CC)cc1,inactive: -19%
5,CSc1ncc(C(=O)Nc2ccc(Cl)cc2C(=O)c2ccccc2)c(C)n1,inactive: 0.612%
6,N#Cc1cccc(NC(=O)CSc2nc3c(cc2C#N)N2CCC3CC2)c1,inactive: 41.2%
7,Cc1nnc(NC(=O)c2cccn(Cc3cccc([N+](=O)[O-])c3)c2=O)s1,inactive: -9.92%
8,C[N+]1(CCC(C(N)=O)(c2ccccc2)c2ccccc2)CCCCC1,inactive: -4.45%
9,O=C(O)COc1nc(Cl)c(Cl)cc1Cl,inactive: 9.95% [at 116 µM]
10,C#C[C@]1(O)CC[C@H]2[C@@H]3CCC4=CC(=O)CC[C@]4(C)[C@H]3CC[C@@]21C,inactive: -9.29%
11,C[C@H]1[C@@H]2Cc3ccc(O)cc3[C@@]1(C)CCN2C,inactive: 0.662% [at 288 µM]
12,C[C@]12COC(=O)C[C@@H]1CC[C@@H]1[C@H]2CC[C@@]2(C)[C@H]1CC[C@]2(C)O,inactive: -10.7%
13,COP(=S)(OC)Oc1ccc(SC)c(C)c1,inactive: 1.04%
14,O=c1[nH]c2ccccc2n1CCCN1CCC(n2c(=O)[nH]c3cc(Cl)ccc32)CC1,inactive
15,CCN(CC)C(=O)c1ccc(NC(=O)Cn2nc(-c3ccc(C)cc3)c3ccccc3c2=O)cc1,inactive: -10.6%
16,O=[N+]([O-])c1c(Cl)c(Cl)cc(Cl)c1Cl,inactive: 8.7% [at 116 µM]
17,Cc1ccc(N=CN(C)C=Nc2ccc(C)cc2C)c(C)c1,inactive: -1.02%
18,CC(C)CC(N(C)C)C1(c2ccc(Cl)cc2)CCC1 (stereo not drawn),inactive
19,COc1ccc(C(=O)N2CCCC2=O)cc1,inactive
20,Cc1cccc(Cn2cccc(C(=O)Nc3cc(C)on3)c2=O)c1,inactive: -9.72%
21,COc1ccc(OC)c(CC(C)N)c1 (stereo not drawn),inactive: -4.17% [at 116 µM]
22,CN1C(=S)CN=C(c2ccccc2)c2cc(Cl)ccc21,inactive: -6.13%
23,CCCCOC(=O)c1ccccc1C(=O)OCc1ccccc1,inactive: 20.2% [at 116 µM]
24,CC[C@@H](C(N)=O)N1CCCC1=O,inactive: -24.4%

row,SMILES,"activity change, negative = inhibition"
1,c1cc2c(cc1[C@H]1OC[C@H]3[C@H]1CO[C@H]3c1ccc3c(c1)OCO3)OCO2,inactive: -19.6%
2,O=C(O)CCCc1ccc(N(CCCl)CCCl)cc1,inactive
3,CC1=C2C[C@@H]3[C@@H](CC=C4C[C@@H](O)CC[C@@]43C)[C@@H]2CC[C@]12O[C@H]1C[C@H](C)CN[C@H]1[C@H]2C,inactive: 9.26%
4,COc1cccc(C(=O)CCN[C@@H](C)[C@H](O)c2ccccc2)c1,inactive: 7.06%
5,C#CCOC(C(=O)OCCN(C)C)(c1ccccc1)c1ccccc1,inactive: 4.73%
6,O=C1c2ccccc2C(=O)C1C(=O)C(c1ccccc1)c1ccccc1,inactive: -2.1%
7,COc1ccc(-c2nc(CN3C(=O)CN=C(c4ccccc4)c4ccccc43)c(C)o2)cc1,inactive: -14.1%
8,Nc1ccncc1,inactive: 1.35%
9,C[N+]1(CCF)[C@@H]2CC[C@H]1CC(OC(=O)C(O)(c1ccccc1)c1ccccc1)C2 (stereo partly drawn),inactive: -6.21%
10,NC1(c2ccccc2)CCCCC1,inactive: -12% [at 116 µM]
11,C[C@]12CC[C@@H]3[C@@H](CCC4=CC(=O)CC[C@@H]43)[C@@H]1CC[C@@H]2OC(=O)CCc1ccccc1,inactive: 2.96%
12,CCOC(=O)NC(C)(C)Cc1ccc(Cl)cc1,inactive: -2.55%
13,CC(C)c1ccc(OCC(=O)N2CCN(CCc3ccncc3)CC2)cc1,inactive: 20.5%
14,CCOc1ccc(CN(CCc2ccc3c(c2)OCO3)Cc2cc(OC)ccc2O)cc1,inactive: 43.9%
15,Cc1c(C(=O)Nc2cccc(C(F)(F)F)c2)cc(-c2ccccc2)n1CCCN1CCOCC1,inactive: 1.56%
16,Cc1cc(OCC(=O)N2CCN(CCc3ccncc3)CC2)ccc1Cl,inactive: -12.5%
17,CSc1ccc(/C=C/c2nc3ccccc3c(=O)n2-c2cccc(Cl)c2C)cc1,inactive: -27.1%
18,O=C(O)c1cc(Oc2ccc(C(F)(F)F)cc2Cl)ccc1[N+](=O)[O-],inactive: 7.75%
19,Cc1ncc2n1-c1ccc(Cl)cc1C(c1ccccc1F)=NC2,inactive: 12.5%
20,Cc1ccc(NC(=O)N(Cc2ccc3c(c2)OCO3)C2CCN(Cc3ccccc3)CC2)cc1C,inactive: -28.8%
21,Nc1ccc(Sc2ccc(N)cc2)cc1,inactive: 5.03% [at 116 µM]
22,CCC(=O)OC1(c2ccccc2)CCN(C)CC1,inactive: 0.98% [at 116 µM]
23,COc1ccc(OC)c(C(c2c(O)c3ccccc3oc2=O)c2c(C)n(C)n(-c3ccccc3)c2=O)c1 (stereo not drawn),inactive: 0.0859%
24,Cc1ccc2c(c1)C1CN(C)CCC1N2 (stereo not drawn),inactive: 4.39% [at 25.2 µM]

# Source: PubChem BioAssay AID1508623 (National Center for Advancing Translational Sciences (NCATS), 2021)
